# Source: PMC4336329 (PLoS ONE, 2015)
# About 2,200 (0.71%) of roughly 310,000 compounds showed an effect of 50% or more. The effect is printed as a negative number. This is one part of the list.
# Target: human ether-à-go-go-related gene (hERG) potassium channel (human, UniProt Q12809)
# Assay: primary screen, population patch clamp on CHO cells stably expressing hERG
# Chain of human ether-à-go-go-related gene (hERG) potassium channel (Q12809 whole entry, looked up): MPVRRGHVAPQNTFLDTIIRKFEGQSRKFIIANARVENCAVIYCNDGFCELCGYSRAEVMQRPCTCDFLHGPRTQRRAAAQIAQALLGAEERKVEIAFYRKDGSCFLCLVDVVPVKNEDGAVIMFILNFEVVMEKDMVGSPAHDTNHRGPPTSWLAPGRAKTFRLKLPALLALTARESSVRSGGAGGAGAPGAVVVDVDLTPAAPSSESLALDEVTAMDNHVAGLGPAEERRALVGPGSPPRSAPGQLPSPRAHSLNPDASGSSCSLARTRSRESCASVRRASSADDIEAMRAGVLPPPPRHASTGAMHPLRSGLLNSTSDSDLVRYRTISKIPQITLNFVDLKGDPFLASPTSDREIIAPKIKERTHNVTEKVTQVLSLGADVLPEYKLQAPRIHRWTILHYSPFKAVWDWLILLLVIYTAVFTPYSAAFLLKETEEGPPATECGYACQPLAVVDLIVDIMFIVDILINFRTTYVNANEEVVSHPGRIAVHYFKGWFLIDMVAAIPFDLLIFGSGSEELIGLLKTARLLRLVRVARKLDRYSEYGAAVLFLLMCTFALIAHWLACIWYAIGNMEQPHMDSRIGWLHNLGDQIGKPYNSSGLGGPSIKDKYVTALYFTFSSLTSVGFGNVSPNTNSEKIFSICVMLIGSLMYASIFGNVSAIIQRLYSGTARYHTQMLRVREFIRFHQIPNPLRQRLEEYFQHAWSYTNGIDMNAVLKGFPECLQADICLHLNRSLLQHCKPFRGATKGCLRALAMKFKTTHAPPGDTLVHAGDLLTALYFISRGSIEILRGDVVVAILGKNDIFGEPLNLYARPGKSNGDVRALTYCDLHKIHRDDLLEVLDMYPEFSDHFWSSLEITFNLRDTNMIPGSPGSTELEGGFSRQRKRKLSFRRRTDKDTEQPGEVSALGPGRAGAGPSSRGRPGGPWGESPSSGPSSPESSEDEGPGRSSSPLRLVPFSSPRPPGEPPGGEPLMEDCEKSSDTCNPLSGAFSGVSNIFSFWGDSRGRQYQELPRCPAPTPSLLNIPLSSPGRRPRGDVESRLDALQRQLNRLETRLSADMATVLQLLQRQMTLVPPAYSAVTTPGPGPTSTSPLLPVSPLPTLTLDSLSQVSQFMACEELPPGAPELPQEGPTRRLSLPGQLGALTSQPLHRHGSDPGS
row,SMILES,"hERG current change (%, negative = inhibition) at 1uM [%]"
1,Cc1cc(C)n2nc(SCC(=O)Nc3ccc(S(=O)(=O)N(C)C)cc3)nc2n1,-6.87
2,O=C(O)c1c[nH]ccc1=O,8.13
3,Cc1ccnc(NC(=O)c2cccc(NC(=O)c3ccccc3C)c2)c1,8.59
4,Cc1ccc(N=Cc2cc(Cc3ccccc3Cl)cc([N+](=O)[O-])c2O)c(O)c1,19
5,C1CC(CN2CCOCC2)CN(Cc2nc(CC3CC3)no2)C1 (stereo not shown),9.95
6,COc1ccc(CNC(=O)CCSCc2ccccc2C)cc1,4.42
7,O=C(NC1CCS(=O)(=O)C1)c1cccc(Br)c1 (stereo not shown),0.757
8,CCCCN(CC)C(=O)c1cc2c(=O)n3cccc(C)c3nc2s1,13.4
9,CS(=O)(=O)c1ccc(NC(=O)CCN2C(=O)NC3(CCCC3)C2=O)cc1,16.8
10,Cc1ccc(S(=O)(=O)NNC(=O)c2ccc3ccccc3n2)cc1,7.9
11,COc1cccc(-c2nc(CS(=O)(=O)CC(=O)NCCCN3CCOCC3)c(C)o2)c1,10.9
12,CC(=O)c1ccc(NC(=O)CN2CCN(c3ncccn3)CC2)cc1.O=C(O)C(=O)O,10.4
13,CN(Cc1ccccc1)C(=O)COC(=O)Cn1cnc2ccccc21,6.75
14,O=C(NCCS(=O)(=O)N1CCN(c2ccccc2F)CC1)C1CC(=O)N(c2ccc(F)cc2)C1 (stereo not shown),5.78
15,O=C(CSc1nnnn1C1CC1)Nc1cccc(S(=O)(=O)N2CCCC2)c1,7.08
16,Cc1csc(NC(=O)c2cc(C)on2)n1,9.84
17,CCC(=O)Nc1cccc(-c2nnc(-c3ccccc3)o2)c1,10.5
18,CCn1cc(C(=O)N2CCCc3ccccc32)c2cc(OC)c(OC)cc2c1=O,3
19,C/C(=N\NC(=O)c1ccc([N+](=O)[O-])cc1Cl)c1ccccc1,16.5
20,COc1ccc(Cn2c(C)nnc2-c2cnn(C)c2N)cc1OC,-2.29

row,SMILES,"hERG current change (%, negative = inhibition) at 1uM [%]"
1,CCOc1ccc(C(=O)O/N=C(\N)c2ccccn2)cc1OCC,9.6
2,c1ccc(COc2ccc(CN3CCN(c4ccccn4)CC3)cc2)cc1,10.1
3,O=C(Cn1c(CO)nc2ccccc21)Nc1ccc2c(c1)OCCCO2,5.09
4,c1ccc(CNc2nc3ccccc3[nH]2)cc1,5.57
5,O=C(Nc1ccccc1)C1COc2ccccc2O1 (stereo not shown),9.77
6,COc1ccc(N2CC(NS(=O)(=O)c3ccc4ccccc4c3)CC2=O)cc1OC (stereo not shown),15.1
7,COc1ccc(-n2nc(C(=O)NCC(=O)Nc3cc(OC)c(OC)c(OC)c3)c3ccccc3c2=O)cc1,18.7
8,COc1ccccc1-n1c(SCC(=O)OC(C)C)nc2cccnc21,7.63
9,Cc1cc(Nc2cc(C(=O)O)ccc2C)n2ncnc2n1,5.05
10,N/C(=N/O)c1cccn1Cc1ccccc1[N+](=O)[O-],18.5
11,Nc1nc2ccc(Cc3ccncc3)cc2s1,12.5
12,CCn1c(COc2ccc(Cl)cc2)nnc1SCc1ccc(C#N)cc1,-42.9
13,COc1cc(OC)cc(C(=O)N[C@H](C(=O)NCCc2ccc(S(N)(=O)=O)cc2)C(C)C)c1,11.7
14,Cc1ccc(NC(=O)c2cc([N+](=O)[O-])ccc2N2CCOCC2)cc1C,-5.84
15,CCC(C)N(C(=O)COC(=O)/C=C/c1ccc(O)c(OC)c1)C1CCS(=O)(=O)C1 (stereo not shown),13.7
16,O=C(Cn1ccc2ccccc2c1=O)NCCC(=O)Nc1cccnc1,15.5
17,CCCCNC(=O)C1CCC(CNS(=O)(=O)c2ccc(NC(C)=O)cc2)CC1 (stereo not shown),8.04
18,Cc1c(C(=O)NCc2cccnc2)oc2ccccc12,0.0118
19,CC1CCCCN1c1nc(-c2ccncc2)nc2ccccc12 (stereo not shown),5.83
20,COc1ccc(-c2nc3c(c4nnc(SC(C)C(=O)Nc5ccc(C)cc5)n24)COC(C)(C)C3)cc1 (stereo not shown),13.9

row,SMILES,"hERG current change (%, negative = inhibition) at 1uM [%]"
1,Cc1ccc(C)c(OCCSc2nnc(C)c(=O)[nH]2)c1,21.5
2,COCCOC(=O)C1=C(N)OC(C)=C(C(=O)OC)C12C(=O)Nc1ccccc12 (stereo not shown),14.5
3,O=C(O)CC1SC(=O)N(Cc2ccccc2)C1=O (stereo not shown),12.3
4,COc1ccc(S(=O)(=O)N2CCC(C(=O)N3CCCCC3)CC2)cc1OC,4.02
5,CCN(CC)S(=O)(=O)c1ccc(NC2CCCc3ccccc32)nc1 (stereo not shown),11.1
6,COc1ccc(-c2cn(-c3ccccc3)c3[n+]2CCS3)cc1,-0.559
7,COC(=O)c1cccc(OCC(O)Cn2cnc3cc(C)c(C)cc32)c1 (stereo not shown),-1.69
8,Cc1cccc(NC(=O)c2ccc3nccnc3c2)c1C,15.6
9,CC(=O)N1CCc2cc(S(=O)(=O)NCCC(=O)NCCc3ccccc3)ccc21,14
10,COc1ccc(NC(=O)C(CC(=O)O)Cc2ccc(Br)cc2)cc1 (stereo not shown),11.9
11,O=C(CC(SCc1ccco1)c1ccc(O)cc1)c1cccs1 (stereo not shown),-0.697
12,CC(C)C1CC(c2ccccc2)(C(CN)CO)CCO1.O=C(O)C(=O)O (stereo not shown),15.2
13,C/C(CC(=O)Nc1cc(C)ccn1)=N\NC(=O)c1ccccc1C,3.57
14,CCOC(=O)c1nnn(-c2nonc2-c2ccccc2)c1C,6.8
15,COc1cc(C(=O)OCC(=O)c2cc(C)n(C)c2C)cc(OC)c1OC,8.25
16,COc1cc(C(F)(F)F)c(C(=O)NCc2cccc(Cl)c2)cn1,12.6
17,CCOn1c(=O)c(=O)n(OC)c2ccccc21,4.7
18,Cc1cc2c(=O)n(Cc3ccco3)c(SCC(=O)NCc3ccco3)nc2s1,-0.915
